Data reported in paper PMC4336329 (PLoS ONE, 2015).
Among all 310,000 compounds or so, about 14,000 (4.5%) showed an effect of 50% or more. Effects have a minus sign here. Some of the results follow.

Each compound was assayed against human ether-à-go-go-related gene (hERG) potassium channel (human, UniProt Q12809) (assay: primary screen, population patch clamp on CHO cells stably expressing hERG).
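Further: peak tail current of the secondary pulse compared with the same well before compound.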

Sequence of human ether-à-go-go-related gene (hERG) potassium channel (Q12809 whole entry, looked up): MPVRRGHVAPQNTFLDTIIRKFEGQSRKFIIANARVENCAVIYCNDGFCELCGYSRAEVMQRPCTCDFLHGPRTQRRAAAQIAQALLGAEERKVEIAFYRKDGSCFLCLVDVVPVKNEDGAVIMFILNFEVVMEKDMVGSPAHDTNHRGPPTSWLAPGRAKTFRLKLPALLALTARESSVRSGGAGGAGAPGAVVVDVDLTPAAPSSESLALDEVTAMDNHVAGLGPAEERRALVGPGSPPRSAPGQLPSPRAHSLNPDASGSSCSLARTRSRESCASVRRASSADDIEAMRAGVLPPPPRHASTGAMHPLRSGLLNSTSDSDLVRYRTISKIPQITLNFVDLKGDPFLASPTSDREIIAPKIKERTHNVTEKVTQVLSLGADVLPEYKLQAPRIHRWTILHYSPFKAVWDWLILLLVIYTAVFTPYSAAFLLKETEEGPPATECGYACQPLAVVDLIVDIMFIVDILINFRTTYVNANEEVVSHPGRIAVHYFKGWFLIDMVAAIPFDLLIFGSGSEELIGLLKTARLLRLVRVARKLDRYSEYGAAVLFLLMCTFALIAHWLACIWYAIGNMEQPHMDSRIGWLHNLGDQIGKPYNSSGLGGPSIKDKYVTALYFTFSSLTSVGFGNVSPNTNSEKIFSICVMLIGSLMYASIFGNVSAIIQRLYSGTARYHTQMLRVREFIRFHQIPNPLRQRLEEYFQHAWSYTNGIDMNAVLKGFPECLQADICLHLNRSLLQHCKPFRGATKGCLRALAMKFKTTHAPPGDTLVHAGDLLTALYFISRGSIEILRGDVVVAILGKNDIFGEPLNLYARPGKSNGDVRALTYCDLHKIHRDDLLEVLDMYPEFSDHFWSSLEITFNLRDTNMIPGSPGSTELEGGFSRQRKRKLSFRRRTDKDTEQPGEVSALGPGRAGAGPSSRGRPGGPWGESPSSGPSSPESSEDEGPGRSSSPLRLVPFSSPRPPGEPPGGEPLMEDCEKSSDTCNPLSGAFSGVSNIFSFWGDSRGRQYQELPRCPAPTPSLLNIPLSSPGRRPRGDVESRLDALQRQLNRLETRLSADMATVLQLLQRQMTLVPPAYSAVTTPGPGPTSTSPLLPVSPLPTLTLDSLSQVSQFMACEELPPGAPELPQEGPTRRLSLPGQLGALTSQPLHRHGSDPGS

Question: With `CCOC(=O)CNC(=S)N(CCCN1CCN(C)CC1)Cc1cccs1` as the compound, how does the “hERG current change (%, negative = inhibition) at 10uM” value read?
Answer: -43.5%

Question: How did the “hERG current change (%, negative = inhibition) at 10uM” value turn out when `COc1ccc(CC(=O)n2c(CC#N)nc3ccccc32)cc1OC` was run?
Answer: 14%

Question: With `Cc1nn(-c2ccccc2)nc1CNC(=O)c1ncoc1-c1ccccc1` as the compound, how does the “hERG current change (%, negative = inhibition) at 10uM” value read?
Answer: -13.1%

Question: Which “hERG current change (%, negative = inhibition) at 10uM” value does the source give for `CNC(=O)N(O)C1N(/N=C/c2ccccc2F)C(=S)SC1(C)C` (stereo not shown) here?
Answer: 9.61%

Question: `COC(=O)Cn1c2ccc(Cl)cc2c2nc(C)sc21` was tested. Which “hERG current change (%, negative = inhibition) at 10uM” value did it give?
Answer: 5.43%

Question: Which “hERG current change (%, negative = inhibition) at 10uM” value does the source give for `O=C(N/N=C/c1cc2c(cc1Br)OCO2)c1ccccn1` here?
Answer: 22.6%

Question: Which “hERG current change (%, negative = inhibition) at 10uM” value does the source give for `Cc1cc(Cl)ccc1NC(=O)C1CCCN1C(=O)c1cccs1` (stereo not shown) here?
Answer: 24.9%

Question: Which “hERG current change (%, negative = inhibition) at 10uM” value does the source give for `COC(=O)C(C)NS(=O)(=O)c1ccc(NC(C)=O)cc1` (stereo not shown) here?
Answer: -2.68%

Question: With `Nc1nc(Nc2cccc(Cl)c2)n[nH]1` as the compound, how does the “hERG current change (%, negative = inhibition) at 10uM” value read?
Answer: 9.19%

Question: With `COC(=O)C1=CO[C@@H](C)[C@@H]2CN3CC[C@@]4(C(=O)Nc5ccccc54)[C@@H]3C[C@H]12` as the compound, how does the “hERG current change (%, negative = inhibition) at 10uM” value read?
Answer: -0.647%

Question: For `COc1ccc(Cl)cc1N1C(=O)CC(N2CCc3ccccc32)C1=O` (stereo not shown), which “hERG current change (%, negative = inhibition) at 10uM” value is on record?
Answer: -11%

Question: With `CCOc1ccc(Br)cc1C(=O)Nc1ccc(C(=O)NCC(C)C)cc1` as the compound, how does the “hERG current change (%, negative = inhibition) at 10uM” value read?
Answer: -10.5%

Question: Which “hERG current change (%, negative = inhibition) at 10uM” value does the source give for `COc1ccc(-n2c(SCC(=O)NCC3CCCO3)nc3c([nH]c4ccccc43)c2=O)cc1` (stereo not shown) here?
Answer: 20.3%

Question: Which “hERG current change (%, negative = inhibition) at 10uM” value does the source give for `C=CCN1C2CCCC1CC(NC(=S)Nc1ccc(Cl)cc1)C2` (stereo not shown) here?
Answer: -39.8%

Question: With `CCOC(=O)c1ccc(NC(=S)Nc2ccc(Br)cc2N)cc1` as the compound, how does the “hERG current change (%, negative = inhibition) at 10uM” value read?
Answer: 20.6%

Question: With `O=C(COc1ccc2ccc(=O)oc2c1)N1CCC(C(=O)O)(c2ccccc2)CC1` as the compound, how does the “hERG current change (%, negative = inhibition) at 10uM” value read?
Answer: 15.3%

Question: Which “hERG current change (%, negative = inhibition) at 10uM” value does the source give for `Cc1ccc(Oc2nc3ccccn3c(=O)c2/C=C(\C#N)C(=O)Nc2c(C)n(C)n(-c3ccccc3)c2=O)c(C)c1` here?
Answer: 7.18%

Question: How did the “hERG current change (%, negative = inhibition) at 10uM” value turn out when `O=c1ccc2ccc(Oc3ccc([N+](=O)[O-])cc3Cl)cc2o1` was run?
Answer: 5.54%

Question: With `COc1ccc(S(=O)(=O)NC(C)C(=O)NCc2ccccn2)cc1Cl` (stereo not shown) as the compound, how does the “hERG current change (%, negative = inhibition) at 10uM” value read?
Answer: 7.6%

Question: With `CCOc1ccc(CCNC(=O)C2CCCN(S(=O)(=O)c3c(C)n[nH]c3C)C2)cc1OCC` (stereo not shown) as the compound, how does the “hERG current change (%, negative = inhibition) at 10uM” value read?
Answer: 3.3%

Question: `O=C(CCCN1C(=O)C2C3C=CC(C3)C2C1=O)N1CCN(c2ccccc2)CC1` (stereo not shown) was tested. Which “hERG current change (%, negative = inhibition) at 10uM” value did it give?
Answer: -16.6%

Question: How did the “hERG current change (%, negative = inhibition) at 10uM” value turn out when `CCn1c2ccccc2c2cc(NC(=O)CSc3nnc(-c4ccccc4)o3)ccc21` was run?
Answer: 3.65%

Question: Which “hERG current change (%, negative = inhibition) at 10uM” value does the source give for `O=C(O)c1cc(OCc2ccccc2)cc(OCc2ccccc2)c1` here?
Answer: 10.8%

Question: How did the “hERG current change (%, negative = inhibition) at 10uM” value turn out when `Cc1ccc(OCC(=O)Nc2ccccc2C(=O)NC2CC2)cc1` was run?
Answer: 2.02%

Question: For `O=C(O)c1ccc(Cl)c(S(=O)(=O)Nc2cccc(C(=O)Nc3cccc(C(F)(F)F)c3)c2)c1`, which “hERG current change (%, negative = inhibition) at 10uM” value is on record?
Answer: 16.4%

Question: `COc1ccccc1OCCNc1nc2c(c(=O)n(C)c(=O)n2C)n1C` was tested. Which “hERG current change (%, negative = inhibition) at 10uM” value did it give?
Answer: -2.23%

Question: `CCOC(=O)C1=C(O)/C(=C/c2ccccn2)SC1=Nc1ccc(Cl)cc1` was tested. Which “hERG current change (%, negative = inhibition) at 10uM” value did it give?
Answer: 10.5%

Question: For `O=C(CCNC(=O)N1CC(=O)Nc2ccccc21)Nc1ccc(Br)cc1F`, which “hERG current change (%, negative = inhibition) at 10uM” value is on record?
Answer: 19.5%

Question: With `Cn1c(C2CCCCC2)nc2cc(N)ccc21` as the compound, how does the “hERG current change (%, negative = inhibition) at 10uM” value read?
Answer: 11.2%

Question: For `Cc1ccc(S(=O)(=O)Nc2cccc(C(=O)NCC3CCCO3)c2)cc1F` (stereo not shown), which “hERG current change (%, negative = inhibition) at 10uM” value is on record?
Answer: 2.12%

Question: `COc1ccc(CN(C)CCc2ccccn2)cc1OC.O=C(O)C(=O)O` was tested. Which “hERG current change (%, negative = inhibition) at 10uM” value did it give?
Answer: -5.06%

Question: With `CCc1ccc2oc(-c3cc(N)ccc3Cl)nc2c1` as the compound, how does the “hERG current change (%, negative = inhibition) at 10uM” value read?
Answer: 13.5%

Question: For `O=C(CCc1c[nH]c2ccccc12)NCC1COc2ccccc2O1` (stereo not shown), which “hERG current change (%, negative = inhibition) at 10uM” value is on record?
Answer: 3%

Question: `COCCNC(=O)CC(NS(=O)(=O)c1ccc(NC(C)=O)cc1)C(C)C` (stereo not shown) was tested. Which “hERG current change (%, negative = inhibition) at 10uM” value did it give?
Answer: -4.3%

Question: How did the “hERG current change (%, negative = inhibition) at 10uM” value turn out when `Cc1cc(Nc2ccc(Br)cc2F)n2nc(C)nc2n1` was run?
Answer: -21.5%

Question: How did the “hERG current change (%, negative = inhibition) at 10uM” value turn out when `CCc1ccccc1NC(=O)C1CCCN(S(=O)(=O)c2c(C)noc2C)C1` (stereo not shown) was run?
Answer: 19.9%

Question: With `Cc1cc(Oc2ccccc2)nc(SCC(=O)Nc2ccc(Cl)cc2Cl)n1` as the compound, how does the “hERG current change (%, negative = inhibition) at 10uM” value read?
Answer: -2.17%

Question: With `CCOc1ccc(N2CC(C(=O)Nc3nnc(Cc4ccccc4)s3)CC2=O)cc1` (stereo not shown) as the compound, how does the “hERG current change (%, negative = inhibition) at 10uM” value read?
Answer: 4.73%

Question: For `C#CCN(C(=O)c1cc(COc2cccc(C(F)(F)F)c2)on1)C1CCCCC1`, which “hERG current change (%, negative = inhibition) at 10uM” value is on record?
Answer: 6.88%

Question: `CCN(CC)CCCN1C=C2C(=O)C(C)(OC(=O)CCc3ccccc3)C(=O)C=C2C=C1c1ccc(C#N)cc1` (stereo not shown) was tested. Which “hERG current change (%, negative = inhibition) at 10uM” value did it give?
Answer: -37.6%

Question: For `COCCNC(=S)N/N=C(\C)c1cccc(C(F)(F)F)c1`, which “hERG current change (%, negative = inhibition) at 10uM” value is on record?
Answer: 18.9%

Question: Which “hERG current change (%, negative = inhibition) at 10uM” value does the source give for `Cc1ccc(NC(=O)C(c2ccccc2)N2CCN(CC(=O)NC3CC3)CC2)cc1Cl` (stereo not shown) here?
Answer: -46.7%

Question: With `O=C(NCCN1CCOCC1)c1ccc2c(c1)N(Cc1ccc(F)cc1)C(=O)CS2` as the compound, how does the “hERG current change (%, negative = inhibition) at 10uM” value read?
Answer: 0.414%

Question: `CCCc1cc(C(=O)N/N=C/c2cccn2C)cs1` was tested. Which “hERG current change (%, negative = inhibition) at 10uM” value did it give?
Answer: -5.17%

Question: How did the “hERG current change (%, negative = inhibition) at 10uM” value turn out when `CCN(CC)CCC(=O)NC(C)(C)Cc1ccc(O)cc1` was run?
Answer: -1.6%

Question: `Cc1cc(C)nc(SCC(=O)N/N=C/c2ccc3c(c2)OCO3)n1` was tested. Which “hERG current change (%, negative = inhibition) at 10uM” value did it give?
Answer: 8.05%

Question: `CCc1ccc2[nH]c3nc(C)cc(C)c3c(=O)c2c1` was tested. Which “hERG current change (%, negative = inhibition) at 10uM” value did it give?
Answer: 6.85%

Question: For `CC(C)=C1SC(N2CCN(c3ccc(C)cc3)CC2)=NC1=O`, which “hERG current change (%, negative = inhibition) at 10uM” value is on record?
Answer: -8.21%

Question: Which “hERG current change (%, negative = inhibition) at 10uM” value does the source give for `Cc1cnc(NC(=O)CN2C(=O)C3CC=CCC3C2=O)s1` (stereo not shown) here?
Answer: 37.7%

Question: Which “hERG current change (%, negative = inhibition) at 10uM” value does the source give for `CCn1c(=O)c(C(=O)CN2CCN(S(=O)(=O)c3cc(C)ccc3C)CC2)c(N)n(Cc2ccccc2)c1=O` here?
Answer: 7.11%

Question: How did the “hERG current change (%, negative = inhibition) at 10uM” value turn out when `NC(=O)c1ccccc1NC(=O)COc1ccc2c(c1)OCO2` was run?
Answer: 4.47%

Question: How did the “hERG current change (%, negative = inhibition) at 10uM” value turn out when `CC[n+]1c(/C=C/N(C)c2ccccc2)sc2ccc(Cl)cc21.[O-][Cl+3]([O-])([O-])[O-]` was run?
Answer: -62.6%

Question: For `CSc1ccc(/C=N/N2CCN(c3ccccc3)CC2)cc1`, which “hERG current change (%, negative = inhibition) at 10uM” value is on record?
Answer: -3.15%

Question: For `CCOc1ccc(NC(=O)c2ccc(-c3csc(C)n3)cc2)cc1`, which “hERG current change (%, negative = inhibition) at 10uM” value is on record?
Answer: 16.5%

Question: `O=C(CCc1nc2sc3c(c2c(=O)[nH]1)CCCC3)NCCc1ccccc1` was tested. Which “hERG current change (%, negative = inhibition) at 10uM” value did it give?
Answer: 6.82%
